Measurements from patent US5227154A, “Phosphopeptides for the treatment of dental calculus” (The University of Melbourne, priority 1991, dated 1993).
Not every detail of the peptide structures is certain; ends, links or a residue may be inferred. Square brackets hold non-standard residues; d marks the D form. Ends that are not written are not given here. Peptide text beside a SMILES is read from it. pS = N[C@@H](COP(=O)(O)O)C(=O)O

Columns and labels:
[1] = Peptide bound calcium phosphate by ultrafiltration method; type: binding; conditions: pH 9.0
[2] = Seeded Crystal Growth Inhibition Assay (hydroxyapatite seeds); conditions: coating concentration 50 μmol/L; pH 7.40, 37° C.
[3] = Seeded Crystal Growth Assay using Brushite (DCPD); conditions: peptide 1.0 μmol/L; pH 6.10

Molecule | vPi (peptide-bound phosphate) [1] | vca (peptide-bound calcium) [1] | Inhibition of Hydroxyapatite Seeded Crystal Growth [2] | Inhibition of Brushite [CaHPO4.2H2O] Seeded Crystal Growth [3]
C[C@H](N)C(=O)N[C@@H](COP(=O)(O)O)C(=O)N[C@@H](C)C(=O)N[C@@H](COP(=O)(O)O)C(=O)N[C@@H](C)C(=O)N[C@@H](COP(=O)(O)O)C(=O)N[C@@H](C)C(=O)N[C@@H](CCC(=O)O)C(=O)O [AΣAΣAΣAE, reference compound] (H-A[pS]A[pS]A[pS]AE-OH) | 1 mol/mol | 2 mol/mol | – | –
CC[C@H](C)[C@H](NC(=O)[C@H](COP(=O)(O)O)NC(=O)[C@@H](N)CCC(=O)O)C(=O)N[C@@H](COP(=O)(O)O)C(=O)N[C@@H](COP(=O)(O)O)C(=O)N[C@@H](COP(=O)(O)O)C(=O)N[C@@H](CCC(=O)O)C(=O)N[C@@H](CCC(=O)O)C(=O)O [EΣIΣΣΣEE] (H-E[pS]I[pS][pS][pS]EE-OH) | 7 mol/mol | 12 mol/mol | 31% | 53%
CC(C)C[C@H](NC(=O)[C@H](COP(=O)(O)O)NC(=O)[C@@H](N)CCC(=O)O)C(=O)N[C@@H](COP(=O)(O)O)C(=O)N[C@@H](COP(=O)(O)O)C(=O)N[C@@H](COP(=O)(O)O)C(=O)N[C@@H](CCC(=O)O)C(=O)N[C@@H](CCC(=O)O)C(=O)O [EΣLΣΣΣEE] (H-E[pS]L[pS][pS][pS]EE-OH) | 7 mol/mol | 12 mol/mol | 30% | 52%
CC[C@H](C)[C@H](NC(=O)[C@H](COP(=O)(O)O)NC(=O)[C@H](CCC(=O)O)NC(=O)[C@H](C)NC(=O)[C@H](CCC(=O)O)NC(=O)[C@H](CCSC)NC(=O)[C@@H](N)CCC(N)=O)C(=O)N[C@@H](COP(=O)(O)O)C(=O)N[C@@H](COP(=O)(O)O)C(=O)N[C@@H](COP(=O)(O)O)C(=O)N[C@@H](CCC(=O)O)C(=O)N[C@@H](CCC(=O)O)C(=O)N[C@H](C(=O)N[C@H](C(=O)N1CCC[C@H]1C(=O)N[C@@H](CC(N)=O)C(=O)N[C@@H](COP(=O)(O)O)C(=O)N[C@H](C(=O)N[C@@H](CCC(=O)O)C(=O)N[C@@H](CCC(N)=O)C(=O)N[C@@H](CCCCN)C(=O)O)C(C)C)C(C)C)[C@@H](C)CC [SEQ. ID NO: 2] (H-QMEAE[pS]I[pS][pS][pS]EEIVPN[pS]VEQK-OH) | 17 mol/mol | 24 mol/mol | – | –
C[C@H](N)C(=O)N[C@@H](COP(=O)(O)O)C(=O)N[C@@H](C)C(=O)N[C@@H](COP(=O)(O)O)C(=O)N[C@@H](C)C(=O)N[C@@H](CCC(=O)O)C(=O)O [AΣAΣAE, reference compound] (H-A[pS]A[pS]AE-OH) | 0 mol/mol | 0 mol/mol | – | –
CC[C@H](C)[C@H](NC(=O)[C@H](COP(=O)(O)O)NC(=O)[C@H](CCC(=O)O)NC(=O)[C@H](C)NC(=O)[C@H](CCC(=O)O)NC(=O)[C@H](CCSC)NC(=O)[C@@H](N)CCC(N)=O)C(=O)N[C@@H](COP(=O)(O)O)C(=O)N[C@@H](COP(=O)(O)O)C(=O)N[C@@H](COP(=O)(O)O)C(=O)N[C@@H](CCC(=O)O)C(=O)N[C@@H](CCC(=O)O)C(=O)N[C@H](C(=O)N[C@H](C(=O)N1CCC[C@H]1C(=O)N[C@@H](CC(N)=O)C(=O)N[C@@H](COP(=O)(O)O)C(=O)N[C@H](C(=O)N[C@@H](CCC(=O)O)C(=O)N[C@@H](CCC(N)=O)C(=O)N[C@@H](CCCCN)C(=O)O)C(C)C)C(C)C)[C@@H](C)CC [SEQ. ID NO: 2/Na] (H-QMEAE[pS]I[pS][pS][pS]EEIVPN[pS]VEQK-OH) | – | – | 61% | –
N[C@@H](COP(=O)(O)O)C(=O)N[C@@H](COP(=O)(O)O)C(=O)N[C@@H](COP(=O)(O)O)C(=O)N[C@@H](CCC(=O)O)C(=O)N[C@@H](CCC(=O)O)C(=O)O [ΣΣΣEE] (H-[pS][pS][pS]EE-OH) | 5 mol/mol | 9 mol/mol | 22% | 31%
QMEAE [QMEAE, reference compound] | 0 mol/mol | 0 mol/mol | 0% | 0%
CC[C@H](C)[C@H](N)C(=O)N[C@H](C(=O)N1CCC[C@H]1C(=O)N[C@@H](CC(N)=O)C(=O)N[C@@H](COP(=O)(O)O)C(=O)N[C@H](C(=O)N[C@@H](CCC(=O)O)C(=O)N[C@@H](CCC(N)=O)C(=O)O)C(C)C)C(C)C [IVPNΣVEQ, reference compound] (H-IVPN[pS]VEQ-OH) | 0 mol/mol | 0 mol/mol | 5% | 5%
C[C@H](N)C(=O)N[C@@H](COP(=O)(O)O)C(=O)N[C@@H](C)C(=O)N[C@@H](CCC(=O)O)C(=O)O [AΣAE, reference compound] (H-A[pS]AE-OH) | 0 mol/mol | 0 mol/mol | – | –
CC[C@H](C)[C@H](NC(=O)[C@H](CCC(=O)O)NC(=O)CNC(=O)[C@@H]1CCCN1C(=O)[C@@H](NC(=O)[C@H](CC(N)=O)NC(=O)[C@H](CC(C)C)NC(=O)[C@H](CCC(=O)O)NC(=O)[C@H](CCC(=O)O)NC(=O)[C@H](CC(C)C)NC(=O)[C@H](CCC(=O)O)NC(=O)[C@@H](N)CCCNC(=N)N)C(C)C)C(=O)N[C@H](C(=O)N[C@@H](CCC(=O)O)C(=O)N[C@@H](COP(=O)(O)O)C(=O)N[C@@H](CC(C)C)C(=O)N[C@@H](COP(=O)(O)O)C(=O)N[C@@H](COP(=O)(O)O)C(=O)N[C@@H](COP(=O)(O)O)C(=O)N[C@@H](CCC(=O)O)C(=O)N[C@@H](CCC(=O)O)C(=O)N[C@@H](CO)C(=O)N[C@H](C(=O)N[C@H](C(=O)N[C@@H](CCCNC(=N)N)C(=O)O)[C@@H](C)O)[C@@H](C)CC)C(C)C [SEQ. ID NO: 1/Na] (H-RELEELNVPGEIVE[pS]L[pS][pS][pS]EESITR-OH) | – | – | 62% | –
CC[C@H](C)[C@H](NC(=O)[C@H](CCC(=O)O)NC(=O)CNC(=O)[C@@H]1CCCN1C(=O)[C@@H](NC(=O)[C@H](CC(N)=O)NC(=O)[C@H](CC(C)C)NC(=O)[C@H](CCC(=O)O)NC(=O)[C@H](CCC(=O)O)NC(=O)[C@H](CC(C)C)NC(=O)[C@H](CCC(=O)O)NC(=O)[C@@H](N)CCCNC(=N)N)C(C)C)C(=O)N[C@H](C(=O)N[C@@H](CCC(=O)O)C(=O)N[C@@H](COP(=O)(O)O)C(=O)N[C@@H](CC(C)C)C(=O)N[C@@H](COP(=O)(O)O)C(=O)N[C@@H](COP(=O)(O)O)C(=O)N[C@@H](COP(=O)(O)O)C(=O)N[C@@H](CCC(=O)O)C(=O)N[C@@H](CCC(=O)O)C(=O)N[C@@H](CO)C(=O)N[C@H](C(=O)N[C@H](C(=O)N[C@@H](CCCNC(=N)N)C(=O)O)[C@@H](C)O)[C@@H](C)CC)C(C)C [SEQ. ID NO: 1] (H-RELEELNVPGEIVE[pS]L[pS][pS][pS]EESITR-OH) | 17 mol/mol | 24 mol/mol | – | –
